The source of these data is US20260083855A1 (Hoffmann-La Roche, published 2026).

The labels stand for the following.
T1: IL-2R on human cells (activated CD4 T cells, PBMC subsets, NK92) (human, UniProt P14784 27-551; P31785 23-369)
T1 sequence (looked up) 1: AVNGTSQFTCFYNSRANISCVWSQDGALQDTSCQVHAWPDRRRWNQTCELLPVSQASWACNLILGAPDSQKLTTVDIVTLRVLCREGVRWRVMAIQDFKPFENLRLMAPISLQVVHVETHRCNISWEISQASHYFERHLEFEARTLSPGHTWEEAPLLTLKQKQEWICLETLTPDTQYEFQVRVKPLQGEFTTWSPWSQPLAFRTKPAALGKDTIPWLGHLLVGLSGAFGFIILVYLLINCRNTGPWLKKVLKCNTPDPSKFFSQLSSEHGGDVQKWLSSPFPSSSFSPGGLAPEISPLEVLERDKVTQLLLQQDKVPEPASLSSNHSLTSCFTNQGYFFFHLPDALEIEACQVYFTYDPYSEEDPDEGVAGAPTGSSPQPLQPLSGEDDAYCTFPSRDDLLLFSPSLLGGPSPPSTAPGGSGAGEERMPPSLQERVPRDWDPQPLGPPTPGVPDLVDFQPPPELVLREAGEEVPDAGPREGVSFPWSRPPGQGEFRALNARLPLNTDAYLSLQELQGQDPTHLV
T1 sequence (looked up) 2: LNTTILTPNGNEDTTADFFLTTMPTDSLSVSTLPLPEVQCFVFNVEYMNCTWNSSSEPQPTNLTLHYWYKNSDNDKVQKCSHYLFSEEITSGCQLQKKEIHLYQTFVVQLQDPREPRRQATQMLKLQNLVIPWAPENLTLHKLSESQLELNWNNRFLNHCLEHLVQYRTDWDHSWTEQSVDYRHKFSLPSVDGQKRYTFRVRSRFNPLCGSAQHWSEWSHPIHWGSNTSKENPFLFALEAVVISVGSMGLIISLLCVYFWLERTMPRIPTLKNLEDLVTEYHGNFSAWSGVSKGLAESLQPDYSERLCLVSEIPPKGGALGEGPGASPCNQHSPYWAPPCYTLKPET

T2: hu IL2R beta-gamma-Fc (P1AD7029-002) (human, UniProt P14784 27-240; P31785 23-262)
T2 construct: Analyte in all SPR runs; also called human IL2R beta-gamma Fc; recombinant human IL2Rbeta-gamma-Fc heterodimer; not shown: Fc part and any linker of the heterodimer
T2 sequence (looked up) 1: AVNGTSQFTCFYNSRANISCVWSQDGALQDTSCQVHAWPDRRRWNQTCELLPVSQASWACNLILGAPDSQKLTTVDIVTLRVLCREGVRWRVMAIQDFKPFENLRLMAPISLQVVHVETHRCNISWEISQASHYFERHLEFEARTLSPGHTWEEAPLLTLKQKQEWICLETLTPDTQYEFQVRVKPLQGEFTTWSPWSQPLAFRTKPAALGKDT
T2 sequence (looked up) 2: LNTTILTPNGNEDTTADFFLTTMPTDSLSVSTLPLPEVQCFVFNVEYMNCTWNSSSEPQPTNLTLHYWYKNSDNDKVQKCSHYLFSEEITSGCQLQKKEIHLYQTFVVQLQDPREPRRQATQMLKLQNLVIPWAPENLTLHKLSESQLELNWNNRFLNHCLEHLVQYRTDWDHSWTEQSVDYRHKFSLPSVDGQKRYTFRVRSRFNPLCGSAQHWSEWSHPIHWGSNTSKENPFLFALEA

B1: PD1-IL2v_N88D (P1AA6761 = P1AD5401) (other)
light: DIVMTQSPDSLAVSLGERATINCKASESVDTSDNSFIHWYQQKPGQSPKLLIYRSSTLESGVPDRFSGSGSGTDFTLTISSLQAEDVAVYYCQQNYDVPWTFGQGTKVEIKRTVAAPSVFIFPPSDEQLKSGTASVVCLLNNFYPREAKVQWKVDNALQSGNSQESVTEQDSKDSTYSLSSTLTLSKADYEKHKVYACEVTHQGLSSPVTKSFNRGEC
heavy 1: EVQLLESGGGLVQPGGSLRLSCAASGFSFSSYTMSWVRQAPGKGLEWVATISGGGRDIYYPDSVKGRFTISRDNSKNTLYLQMNSLRAEDTAVYYCVLLTGRVYFALDSWGQGTLVTVSSASTKGPSVFPLAPSSKSTSGGTAALGCLVKDYFPEPVTVSWNSGALTSGVHTFPAVLQSSGLYSLSSVVTVPSSSLGTQTYICNVNHKPSNTKVDKKVEPKSCDKTHTCPPCPAPEAAGGPSVFLFPPKPKDTLMISRTPEVTCVVVDVSHEDPEVKFNWYVDGVEVHNAKTKPREEQYNSTYRVVSVLTVLHQDWLNGKEYKCKVSNKALGAPIEKTISKAKGQPREPQVCTLPPSRDELTKNQVSLSCAVKGFYPSDIAVEWESNGQPENNYKTTPPVLDSDGSFFLVSKLTVDKSRWQQGNVFSCSVMHEALHNHYTQKSLSLSPGK
heavy 2: EVQLLESGGGLVQPGGSLRLSCAASGFSFSSYTMSWVRQAPGKGLEWVATISGGGRDIYYPDSVKGRFTISRDNSKNTLYLQMNSLRAEDTAVYYCVLLTGRVYFALDSWGQGTLVTVSSASTKGPSVFPLAPSSKSTSGGTAALGCLVKDYFPEPVTVSWNSGALTSGVHTFPAVLQSSGLYSLSSVVTVPSSSLGTQTYICNVNHKPSNTKVDKKV[human IgG1 Fc with changes not written out]GGGGSGGGGSGGGGSAPASSSTKKTQLQLEHLLLDLQMILNGINNYKNPKLTRMLTAKFAMPKKATELKHLQCLEEELKPLEEVLNGAQSKNFHLRPRDLISDINVIVLELKGSETTFMCEYADETATIVEFLNRWITFAQSIISTLT
B2: PD1 376 IgG-huIL2v D109A (P1AE0497) (other)
light: B1 light
heavy 1: B1 heavy 1
heavy 2: EVQLLESGGGLVQPGGSLRLSCAASGFSFSSYTMSWVRQAPGKGLEWVATISGGGRDIYYPDSVKGRFTISRDNSKNTLYLQMNSLRAEDTAVYYCVLLTGRVYFALDSWGQGTLVTVSSASTKGPSVFPLAPSSKSTSGGTAALGCLVKDYFPEPVTVSWNSGALTSGVHTFPAVLQSSGLYSLSSVVTVPSSSLGTQTYICNVNHKPSNTKVDKKV[human IgG1 Fc with changes not written out]GGGGSGGGGSGGGGSAPASSSTKKTQLQLEHLLLDLQMILNGINNYKNPKLTRMLTAKFAMPKKATELKHLQCLEEELKPLEEVLNGAQSKNFHLRPRDLISNINVIVLELKGSETTFMCEYAAETATIVEFLNRWITFAQSIISTLT
notes: Immunoconjugate: anti-human PD-1 (376) IgG1 PG LALA knob/hole, IL2v variant on the knob heavy chain; also called PD1-IL2v D109A
B3: PD1 376 IgG-huIL2v H79S (P1AE0493) (other)
light: B1 light
heavy 1: B1 heavy 1
heavy 2: EVQLLESGGGLVQPGGSLRLSCAASGFSFSSYTMSWVRQAPGKGLEWVATISGGGRDIYYPDSVKGRFTISRDNSKNTLYLQMNSLRAEDTAVYYCVLLTGRVYFALDSWGQGTLVTVSSASTKGPSVFPLAPSSKSTSGGTAALGCLVKDYFPEPVTVSWNSGALTSGVHTFPAVLQSSGLYSLSSVVTVPSSSLGTQTYICNVNHKPSNTKVDKKV[human IgG1 Fc with changes not written out]GGGGSGGGGSGGGGSAPASSSTKKTQLQLEHLLLDLQMILNGINNYKNPKLTRMLTAKFAMPKKATELKHLQCLEEELKPLEEVLNGAQSKNFSLRPRDLISNINVIVLELKGSETTFMCEYADETATIVEFLNRWITFAQSIISTLT
notes: Immunoconjugate; also called PD1-IL2v H79S
B4: PD1 376 IgG-huIL2v L12V (P1AE0489) (other)
light: B1 light
heavy 1: B1 heavy 1
heavy 2: EVQLLESGGGLVQPGGSLRLSCAASGFSFSSYTMSWVRQAPGKGLEWVATISGGGRDIYYPDSVKGRFTISRDNSKNTLYLQMNSLRAEDTAVYYCVLLTGRVYFALDSWGQGTLVTVSSASTKGPSVFPLAPSSKSTSGGTAALGCLVKDYFPEPVTVSWNSGALTSGVHTFPAVLQSSGLYSLSSVVTVPSSSLGTQTYICNVNHKPSNTKVDKKV[human IgG1 Fc with changes not written out]GGGGSGGGGSGGGGSAPASSSTKKTQVQLEHLLLDLQMILNGINNYKNPKLTRMLTAKFAMPKKATELKHLQCLEEELKPLEEVLNGAQSKNFHLRPRDLISNINVIVLELKGSETTFMCEYADETATIVEFLNRWITFAQSIISTLT
notes: Immunoconjugate: anti-human PD-1 (376) IgG1 PG LALA knob/hole, IL2v variant on the knob heavy chain; also called P1AE0489-007

In one assay the target is T1, IL-2R on human cells (activated CD4 T …). Briefly: cell-based or functional assay. Also on record: AUC of STAT5-P on PD1+ T cells / AUC of STAT5-P on PD1-blocked T cells: unit not given beside the values.
As to B1, the “AUC of STAT5-P on PD1+ T cells” value was found to be 67.2, the “AUC of STAT5-P on PD1-blocked T cells” value stood at 9.5 and the “Potency reduction vs PD1-IL2v” value came out at 8.57 fold.

For the molecule B2, the “AUC of STAT5-P on PD1+ T cells” value worked out at 216, the “AUC of STAT5-P on PD1-blocked T cells” value turned out to be 118 and the “Potency reduction vs PD1-IL2v” value worked out at 1.12 fold.

As to B3, the “AUC of STAT5-P on PD1+ T cells” value is 204, the “AUC of STAT5-P on PD1-blocked T cells” value amounted to 112 and the “Potency reduction vs PD1-IL2v” value was found to be 1.51 fold.

A further assay concerns the target human PD-1 on activated CD4 T cells (human, UniProt Q15116 25-288). In words: cell-based or functional assay. Also noted: AUC of STAT5-P on PD1+ T cells / AUC of STAT5-P on PD1-blocked T cells: unit not given beside the values.
UniProt Q15116, sequence (Q15116 25-288 limits assumed): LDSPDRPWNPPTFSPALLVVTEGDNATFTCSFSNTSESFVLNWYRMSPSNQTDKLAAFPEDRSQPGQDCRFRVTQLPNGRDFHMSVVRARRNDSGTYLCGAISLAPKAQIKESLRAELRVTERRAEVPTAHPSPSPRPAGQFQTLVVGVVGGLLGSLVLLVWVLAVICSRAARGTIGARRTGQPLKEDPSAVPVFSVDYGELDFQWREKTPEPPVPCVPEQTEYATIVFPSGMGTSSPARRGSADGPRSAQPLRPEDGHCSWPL
On to B1, for which the “Cis-delivery: fold increase in EC50, EC50 [with PD1bl]/EC50 [PD1+]” value (“Cis-delivery: fold increase in EC50” below) was found to be 47100 fold.

B2: the “Cis-delivery: fold increase in EC50” value stood at 24.3 fold.

B3: the “Cis-delivery: fold increase in EC50” value was found to be 16.9 fold.

For another assay, the target named is T2, hu IL2R beta-gamma-Fc (P1AD7029-002). Briefly: SPR, purified, captured via anti-human Fc, IL2Rbg-Fc analyte, 1:1 Langmuir. The source says:
Bulk refractive index differences were corrected for by subtracting the response obtained on the reference flow cell 1.
Background: Surface plasmon resonance follows binding to a sensor surface in real time, without labels.
One may read the Kd as the equilibrium constant for the complex coming apart. What is called koff is a measure of how fast the partners let go of each other. The term kon denotes a measure of how fast the partners come together. Take B4: the affinity, expressed as Kd, was 0.004 nM; the koff is 7.53e-07 s⁻¹; the association rate constant (kon) is 191000 M⁻¹ s⁻¹.

B2 returned a dissociation constant Kd of 0.09 nM, an off-rate (koff) of 1.87e-05 s⁻¹ and an on-rate (kon) of 216000 M⁻¹ s⁻¹.

With B3, the Kd worked out at 0.05 nM, the koff amounted to 9.2e-06 s⁻¹ and the kon is 210000 M⁻¹ s⁻¹.
